From PubChem BioAssay AID1345082 (National Center for Advancing Translational Sciences (NCATS), 2018)
About 4,000 (4.3%) of roughly 94,000 compounds were called active. Inconclusive results, whose numbers are uncertain, are shown with a selection of clear calls. The call rests on the fitted dose curve; in most records, active means well fitted inhibition curve with a large enough effect; inconclusive means small, poorly fitted or top-dose-only effect; inactive means no such curve, though single readings can be large or run the other way. A potency beside an inconclusive call is a rough fit, not a confirmed value.

Test: Cytotoxic Profiling in NIH 3T3 Cell Line of Diverse Libraries Using Quantitative High-Throughput Screening; further: nearly all actives have a fitted effect of over 55% in size
Conditions: NIH 3T3 viability, CellTiter-Glo ATP luminescence, 48-72 h; activity change, negative = cytotoxicity: at 96.7 µM (top of the series) unless noted; series mostly up to 96.7 µM
Method in brief: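 Mouse fibroblast NIH 3T3 cells, 400 per well, received compound via pintool and were incubated for 48 or 72 hr prior to CellTiter-Glo ATP luminescence measurement.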
On the % scale 0 is the no-effect control and ±100 the full control effect; potency means the concentration at half of the fitted maximal effect; tags describe the fitted curve by direction and shape.

Compound | Potency | activity change, negative = cytotoxicity
COc1ccc(CN2Cc3[nH]cnc3C[C@H]2c2nc(-c3ccccn3)no2)cc1 | inconclusive: 126 µM [inhibitor, single point] | 
Cc1cc(C)cc(C(=O)Nc2cccc(-c3nnc4n3CCCC4)c2)c1 | inconclusive: 50.1 µM [inhibitor, partial curve, poor fit] | 
Cc1noc(C)c1-c1ccc2c(n1)CN(Cc1nc3ccccc3s1)C(=O)CO2 | inconclusive: 89.1 µM [inhibitor, partial curve, poor fit] | 
COc1cccc(-c2cc(C(=O)Nc3cccc(F)c3)c3cnn(C)c3n2)c1 |  | inactive: -21.1%
CCn1cc2c3c(cccc31)CN(C(=O)Cc1ccc(F)cc1)CC2 | inconclusive: 50.1 µM [inhibitor, partial curve, poor fit] | 
COc1cccc(CN2C[C@@H]3C(=O)N(CCN4CCc5ccccc5C4)C(=O)[C@@H]3C2)c1OC | inconclusive: 28.2 µM [inhibitor, partial curve, poor fit] | 
Cc1nc(CCNc2cc(C3CC(O)C3)ncn2)sc1C (centres undefined) |  | inactive: -16.2%
Cc1noc2ncnc(N3CCC4(CC3)CC(c3ccccc3)CN(C)C4)c12 (centres undefined) | inconclusive: 39.8 µM [inhibitor, partial curve, poor fit] | 
CC1(c2cccnc2)N(CC2CC2)C(=O)OC12CCN(C(=O)c1cccc(O)c1)CC2 (centres undefined) | active: 35.5 µM | 
O=C(c1cc2ccccc2[nH]1)N1CCN(c2cc(-c3ccccc3)[nH]n2)CC1 | active: 35.5 µM | 
CNC(=O)c1cc(-c2ccc(CO)cc2)cc2c1OCCN2Cc1cccnc1 | active: 44.7 µM | 
O=C(NCc1nnc2ccc(-c3ccccc3)nn12)c1ccc(Cl)cc1 | inconclusive: 50.1 µM [inhibitor, partial curve, poor fit] | 
Cc1ccccc1C(=O)N1CCCC2(CNc3ncccc3[S+](=O)([O-])N2)C1 (centres undefined) |  | inactive: -12.7%
COCCn1c(=O)c(C(=O)N2CCN([S+](=O)([O-])c3cccc(C(F)(F)F)c3)CC2)nc2cccnc21 |  | inactive: -20.7%
COCCCn1c(C)cc(C(=O)N2CCC(CCOc3ccccc3)C2)c1C (centres undefined) | inconclusive: 50.1 µM [inhibitor, partial curve, poor fit] | 
COc1ccc(CN2CCCCCNC(=O)CC2c2ccccc2)cc1Cc1c(C)noc1C (centres undefined) | active: 35.5 µM | 
COc1ccc2[nH]c3c(c2c1)CCNC31CCN(C(=O)CNC(C)=O)CC1 |  | inactive: -12.3%
O=C(c1cnccn1)N1CCc2[nH]nc(C(c3ccccc3)c3ccccc3)c2C1 |  | inactive: -6.89%
CC1CCN(S(=O)(=O)N2CCC(C(=O)N3CCCC3c3nc(C4CCOCC4)no3)CC2)CC1 (centres undefined) | inconclusive: 50.1 µM [inhibitor, partial curve, poor fit] | 
